Laboratory results: publication PMC9830914, “Differential effects of mutations of POPDC proteins on heteromeric interaction and membrane trafficking” (Acta Neuropathologica Communications, 2023)
Residue numbers refer to the chain shown, from its start. Results are given in words; binding and its absence hold for the method and conditions named. For some assays here: In cells and extracts the contact can be indirect. Some entries that bind do so weakly or less than the wild type. For some assays here: Where a sequence is shown, tags or fusion partners need not be part of it. Each block holds one binder with its values, some of them ahead of it.

Experiments:
[1] = molecular target: T1, POPDC1 with C-terminal NanoLuc or HaloTag (NanoBRET constructs) (human) (UniProt Q8NE79); assay: FRET or BRET; type-1 quantitative NanoBRET in HEK293 cells; C-terminal NanoLuc and HaloTag (HaloTag-618 dye); expression ratios varied at constant total expression; curves compared to ideal curves for monomers, dimers and other stoichiometries
T1 sequence (chain, HaloTag-618 dye on the HaloTag copy): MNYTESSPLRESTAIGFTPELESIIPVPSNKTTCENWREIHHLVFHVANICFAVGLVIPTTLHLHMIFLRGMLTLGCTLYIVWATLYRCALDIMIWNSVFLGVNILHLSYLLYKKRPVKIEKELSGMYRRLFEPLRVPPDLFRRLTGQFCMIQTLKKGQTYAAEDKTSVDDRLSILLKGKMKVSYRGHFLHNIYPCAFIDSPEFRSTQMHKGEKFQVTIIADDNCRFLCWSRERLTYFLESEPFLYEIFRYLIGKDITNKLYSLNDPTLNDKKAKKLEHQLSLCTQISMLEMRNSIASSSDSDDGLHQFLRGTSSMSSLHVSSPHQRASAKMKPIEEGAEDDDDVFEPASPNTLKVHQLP

[2] = molecular target: POPDC2 with C-terminal NanoLuc or HaloTag (NanoBRET constructs) (human) (UniProt Q9HBU9); assay: as above
[3] = molecular target: T2, POPDC1 p.V183F-VC155 (human) (UniProt Q8NE79); assay: split reporter; BiFC in HEK293 cells, split Venus VC155 on POPDC1 and VN155 on POPDC2; Venus signal normalised to co-transfected mRFP and to the wild-type pair (set to 1)
T2 sequence: T1 sequence (chain, HaloTag-618 dye on the HaloTag copy) with V183F

POPDC1-VC155 (human) = molecular target: T3, POPDC1-VC155 (human) (UniProt Q8NE79); assay: as above
T3 sequence: T1 sequence (chain, HaloTag-618 dye on the HaloTag copy)

[4] = molecular target: T4, POPDC1-MYC (not stated (human or mouse cDNA cloned)) (UniProt Q8NE79); assay: co-IP; COS-7 cells transiently expressing epitope-tagged POPDC constructs, 1% Triton X-100 lysis buffer; c-Myc Tag or HA Tag IP/Co-IP kit; Western blot
T4 sequence: T1 sequence (chain, HaloTag-618 dye on the HaloTag copy)

POPDC3-MYC = molecular target: T5, POPDC3-MYC (UniProt Q9HBV1); assay: as above
T5 sequence: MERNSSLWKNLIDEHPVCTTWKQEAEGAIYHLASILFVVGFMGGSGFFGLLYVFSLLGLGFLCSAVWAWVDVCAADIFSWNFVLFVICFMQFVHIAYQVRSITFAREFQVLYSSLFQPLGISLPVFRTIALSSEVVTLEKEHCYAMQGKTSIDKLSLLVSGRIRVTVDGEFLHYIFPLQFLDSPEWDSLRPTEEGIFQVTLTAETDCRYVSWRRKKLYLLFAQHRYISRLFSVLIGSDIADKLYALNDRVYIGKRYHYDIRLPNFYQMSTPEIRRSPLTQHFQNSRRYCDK

POPDC1-CFP (human) = molecular target: T6, POPDC1-CFP (human) (UniProt Q8NE79); assay: SDS-PAGE and Western blot of oligomer bands; COS-7 cells lysed in 4 M urea and 10% SDS without a reducing agent; anti-GFP antibody detects complexes that hold POPDC1-CFP
T6 sequence: T1 sequence (chain, HaloTag-618 dye on the HaloTag copy)

[5] = molecular target: T7, POPDC1-HA (not stated (human or mouse cDNA cloned)) (UniProt Q8NE79); assay: co-IP; COS-7 cells transiently expressing epitope-tagged POPDC constructs, 1% Triton X-100 lysis buffer; c-Myc Tag or HA Tag IP/Co-IP kit; Western blot
T7 sequence: T1 sequence (chain, HaloTag-618 dye on the HaloTag copy)

[6] = molecular target: T8, POPDC2, endogenous in mouse heart (mouse (endogenous in heart)) (UniProt Q9ES82); assay: co-IP; mouse ventricle lysate (1% Triton X-100), rabbit anti-POPDC2 antibody, Protein A agarose; POPDC1 detected by Western blot; Popdc2 null hearts as control
T8 sequence: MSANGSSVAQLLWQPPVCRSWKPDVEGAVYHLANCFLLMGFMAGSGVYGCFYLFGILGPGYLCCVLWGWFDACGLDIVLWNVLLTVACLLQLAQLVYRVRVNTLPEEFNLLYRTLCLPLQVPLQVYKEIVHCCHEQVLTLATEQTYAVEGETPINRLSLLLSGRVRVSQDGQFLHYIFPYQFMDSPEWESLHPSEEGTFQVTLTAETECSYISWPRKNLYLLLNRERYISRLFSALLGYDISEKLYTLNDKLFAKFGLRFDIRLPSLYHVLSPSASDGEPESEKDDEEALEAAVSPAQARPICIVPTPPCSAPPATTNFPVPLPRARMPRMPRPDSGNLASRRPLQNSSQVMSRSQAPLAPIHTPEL

[7] = molecular target: T8, POPDC2, endogenous in mouse heart (mouse (endogenous in heart)); assay: proximity ligation; Duolink PLA on sections of mouse atrium and ventricle with goat anti-POPDC1 and rabbit anti-POPDC2; Popdc1/Popdc2 double knockout ventricle as negative control

B1: POPDC2 with C-terminal NanoLuc or HaloTag (NanoBRET constructs) (protein, UniProt Q9HBU9 1-364)
chain: MSANSSRVGQLLLQGSACIRWKQDVEGAVYHLANCLLLLGFMGGSGVYGCFYLFGFLSAGYLCCVLWGWFSACGLDIVLWSFLLAVVCLLQLAHLVYRLREDTLPEEFDLLYKTLCLPLQVPLQTYKEIVHCCEEQVLTLATEQTYAVEGETPINRLSLLLSGRVRVSQDGQFLHYIFPYQFMDSPEWESLQPSEEGVFQVTLTAETSCSYISWPRKSLHLLLTKERYISCLFSALLGYDISEKLYTLNDKLFAKFGLRFDIRLPSLYHVLGPTAADAGPESEKGDEEVCEPAVSPPQATPTSLQQTPPCSTPPATTNFPAPPTRARLSRPDSGILASRIPLQSYSQVISRGQAPLAPTHTPEL
modifications: HaloTag-618 dye on the HaloTag copy
binding [1]: binds
binding [2]: binds

B3: POPDC2-FLAG (protein, UniProt Q9HBU9 1-364)
chain: B1 chain
binding [4]: binds
binding (POPDC3-MYC): no binding
binding (POPDC1-CFP (human)): binds

B5: POPDC1 (BVES), endogenous in mouse heart (protein, UniProt Q9ES83 1-358)
chain: MNSTESIPLAQSTVAGFTSELESLTPVPSNETTCENWREIHHLVFHVANVCFAVGLLIPTTLHLHMILLRVMLSLGCTLYVVWATLYRCALDVMIWNSVFLGINILHLSYLLYKKRPVKIEKELGGVYHRLFEPLRVPPDLFRRLTGQFCMIQTLKRGQVYATEDKTSVDDRLSILLKGRMKVSYRGHFLHNIYPCAFIDSPEFRSTQMHKGEKFQVTIVADDNCRFLCWSRERLTYFLESEPFLYEIFRYLIGKDITNKLYSLNDPTLNDKKVKKLEPQMSLCTQISMLEMRNSITSSSDGEDGLHHFLRGSSSTASLPMSSPQQRASAKMKPIEEGVEDDDEVFVSPDALKVHQLP
binding [6]: binds
binding [7]: binds

Results, then the binder that gave them:

binding [3]: binds
binding (POPDC1-VC155 (human)): binds
B2: POPDC2-VN155 (natural protein, human, UniProt Q9HBU9 1-364, looked up)
chain: B1 chain
notes: POPDC2, human, full-length wild-type cDNA; also called wild-type POPDC2 with split Venus VN155; source: HEK293, transfected, in cells; not shown: split Venus VN155, C-terminal, kept

binding [5]: binds
binding (POPDC1-CFP (human)): binds
B4: POPDC3-MYC (protein, UniProt Q9HBV1 1-291)
chain: T5 sequence
